# According to PubChem BioAssay AID1345083 (National Center for Advancing Translational Sciences (NCATS), 2018):
# Hit rate of the full screen: of about 94,000 compounds, about 6,200 (6.6%) were called active. This list was built around the results that the source calls inconclusive (neither active nor inactive); the mix of calls is not that of the screen. The call rests on the fitted dose curve; in most records, active means well fitted inhibition curve with a large enough effect; inconclusive means small, poorly fitted or top-dose-only effect; inactive means flat fitted curve, though single readings scatter. A potency beside an inconclusive call is a rough fit, not a confirmed value.
# Assay: Cytotoxic Profiling in HEK 293 Cell Line of Diverse Libraries Using Quantitative High-Throughput Screening; further: nearly all actives have a fitted effect of over 60% in size
# Conditions: HEK 293 viability, ATP luminescence (CellTiter-Glo), 48-72 h; activity change, negative = cytotoxicity: at 115 µM (top of the series) unless noted; series mostly up to 115 µM
# Outline: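 CellTiter-Glo luminescence (cellular ATP) was read after 48 or 72 hr of compound exposure at 37 degree Celsius. Cells were HEK 293 plated at 250 cells/well.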
# On the % scale 0 is the no-effect control and ±100 the full control effect; potency means the concentration at half of the fitted maximal effect; tags describe the fitted curve by direction and shape.
Compound,Potency,outcome,"activity change, negative = cytotoxicity"
Cc1cc(C)n(-c2cccc(CN(C)C(=O)c3cc(C(C)C)no3)c2)n1,"inconclusive: 56.2 µM [inhibitor, partial curve, poor fit]",–,–
Cc1nn(-c2ccc(C(C)C)cc2)c(C)c1[C@@H]1C=C[C@@H](NC(=O)CC2(CC(=O)O)CCCC2)C1,"inconclusive: 89.1 µM [inhibitor, single point]",–,–
Cc1cc(C)n(CCC(=O)N2CC(c3noc(COc4ccc(F)cc4)n3)C2)n1,"inconclusive: 50.1 µM [inhibitor, partial curve, poor fit]",–,–
COC(=O)C1=C(C)N=C2SC=C(CC(=O)NCc3ccc(F)cc3)N2C1c1cccc(OC)c1 (stereo unspecified),active: 39.8 µM,–,–
C#CCNC(=O)C1CCc2nnc(C3CCN(C(=O)Nc4ccc(Cl)cc4)CC3)n21 (stereo unspecified),–,inactive,–
Cc1nn(-c2ccccc2)c2c1C(C)N(C1CCN(C(=O)NC3CCCC3)CC1)C2=O (stereo unspecified),"inconclusive: 79.4 µM [inhibitor, partial curve, poor fit]",–,–
O=C(NCCCc1ccccc1)c1ccc2nc(-c3ccccn3)oc2c1,"inconclusive: 50.1 µM [inhibitor, partial curve, poor fit]",–,–
CC1=C(C(=O)NC(C)(C)C)C(c2ccc(Cl)cc2)N2C(CC(=O)N3CCCC3)=CSC2=N1 (stereo unspecified),"inconclusive: 20 µM [inhibitor, full curve, poor fit]",–,–
CC1(C)C(=O)N(CC2CCOCC2)[C@H]2CN(Cc3cccc(OC(F)(F)F)c3)C[C@H]2[S+]1(=O)[O-],"inconclusive: 63.1 µM [inhibitor, partial curve, poor fit]",–,–
COc1ccc(CC2CCOC3(CCN(C(=O)CC(C)C)CC3)C2)cc1 (stereo unspecified),"inconclusive: 50.1 µM [inhibitor, partial curve, poor fit]",–,–
COc1cccc(-c2cccc(CN3CCCC3C(=O)N3CCCCC3)c2)c1 (stereo unspecified),"inconclusive: 50.1 µM [inhibitor, partial curve, poor fit]",–,–
COc1ccc(CN2C(=O)O[C@@H]3CN(C(=O)NC(C)(C)C)C[C@@H]32)cc1OC,–,–,inactive: 1.32%
COCCn1c(=O)c(C(=O)N2CCN(C(=O)c3cccc(OC)c3)CC2)nc2cccnc21,–,–,inactive: -2.31%
COc1ccc(OC)c(NC(=O)c2ccc3c(c2)C(O)CCCCCN3C)c1 (stereo unspecified),"inconclusive: 50.1 µM [inhibitor, partial curve, poor fit]",–,–
CCN1C(=O)C2CC3(CCN(C(=O)c4cc5ccccc5[nH]4)CC3)CN2C1=O (stereo unspecified),"inconclusive: 89.1 µM [inhibitor, single point]",–,–
CN(Cc1ccccc1)C(=O)CC1CCN(C(=O)CC2CCCC2)C1 (stereo unspecified),"inconclusive: 56.2 µM [inhibitor, partial curve, poor fit]",–,–
